Assay results taken from paper PMC6954185 (Nature Communications, 2020).
Numbering of substitutions follows the chain as printed. Numbers in names are those of the source. These are yes or no findings as the source states them, for the method shown. Some entries that bind do so weakly or less than the wild type. For some of these results: Where a sequence is shown, tags or fusion partners need not be part of it.

Chains of the proteins cited; added tags and fusions are not shown. Residues count along the entry.
UniProt O75334, residues 866-1193: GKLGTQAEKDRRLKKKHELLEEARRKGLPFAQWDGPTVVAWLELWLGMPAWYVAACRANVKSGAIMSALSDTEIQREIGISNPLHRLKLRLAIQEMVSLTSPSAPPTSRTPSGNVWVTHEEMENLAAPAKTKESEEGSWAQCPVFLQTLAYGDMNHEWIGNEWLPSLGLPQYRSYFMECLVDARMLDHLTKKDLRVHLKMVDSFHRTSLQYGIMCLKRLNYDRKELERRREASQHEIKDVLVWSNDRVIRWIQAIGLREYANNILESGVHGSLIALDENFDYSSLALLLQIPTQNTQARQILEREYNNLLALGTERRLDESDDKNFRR
UniProt O14936, residues 1-345: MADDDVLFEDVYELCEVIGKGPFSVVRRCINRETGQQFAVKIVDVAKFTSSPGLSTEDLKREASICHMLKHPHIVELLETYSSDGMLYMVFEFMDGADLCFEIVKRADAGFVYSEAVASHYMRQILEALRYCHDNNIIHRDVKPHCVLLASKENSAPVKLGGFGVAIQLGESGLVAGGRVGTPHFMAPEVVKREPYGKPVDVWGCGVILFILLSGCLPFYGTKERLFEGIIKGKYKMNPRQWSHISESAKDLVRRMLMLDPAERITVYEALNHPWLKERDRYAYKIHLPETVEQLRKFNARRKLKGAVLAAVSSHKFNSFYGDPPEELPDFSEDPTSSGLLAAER
UniProt P60469, residues 806-1126: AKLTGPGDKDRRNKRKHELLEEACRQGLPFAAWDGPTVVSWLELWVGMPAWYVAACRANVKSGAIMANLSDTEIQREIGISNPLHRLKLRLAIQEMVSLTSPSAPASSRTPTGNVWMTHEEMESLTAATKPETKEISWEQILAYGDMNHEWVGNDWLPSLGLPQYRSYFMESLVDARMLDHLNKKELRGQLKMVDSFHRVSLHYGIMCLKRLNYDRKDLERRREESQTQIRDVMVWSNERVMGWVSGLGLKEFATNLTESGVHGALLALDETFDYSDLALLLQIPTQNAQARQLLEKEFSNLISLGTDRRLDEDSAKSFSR

Key:
[1] = target: liprin-α2_SAM123 (C-terminal SAM repeats of human liprin-α2), Trx-His6-tagged (human) (UniProt O75334); test: SEC; analytical gel filtration, Superdex 200 Increase 10/300 GL; 50 mM Tris-HCl pH 7.5, 100 mM NaCl, 1 mM EDTA, 1 mM DTT; N-terminal tags kept; both purified
[2] = target: α2_SAM123/LAR_D1D2 complex (formed beforehand) (human) (UniProt O75334+P10586); test: as above
[3] = target: T1, LAR_D1D2 F1829E mutant, His6-SUMO-tagged (human) (UniProt P10586); test: as above
T1 sequence: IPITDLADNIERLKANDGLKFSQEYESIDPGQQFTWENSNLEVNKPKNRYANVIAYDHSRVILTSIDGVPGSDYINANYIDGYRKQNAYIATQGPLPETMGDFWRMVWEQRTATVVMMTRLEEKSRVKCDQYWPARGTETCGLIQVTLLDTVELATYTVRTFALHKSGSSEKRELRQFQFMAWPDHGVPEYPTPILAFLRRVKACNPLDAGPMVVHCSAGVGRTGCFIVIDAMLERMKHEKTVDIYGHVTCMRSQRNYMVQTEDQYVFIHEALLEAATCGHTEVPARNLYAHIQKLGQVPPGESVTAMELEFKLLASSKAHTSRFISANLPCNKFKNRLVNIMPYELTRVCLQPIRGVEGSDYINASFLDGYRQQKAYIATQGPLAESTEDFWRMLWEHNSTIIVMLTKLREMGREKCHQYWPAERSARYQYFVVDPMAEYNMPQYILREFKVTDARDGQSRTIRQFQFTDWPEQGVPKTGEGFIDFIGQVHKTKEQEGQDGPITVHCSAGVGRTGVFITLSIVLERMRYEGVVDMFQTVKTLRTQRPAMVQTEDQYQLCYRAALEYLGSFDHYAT

[4] = target: T1, LAR_D1D2 F1829E mutant, His6-SUMO-tagged (human); test: ITC; VP-ITC at 25 °C; 50 mM Tris-HCl pH 7.5, 100 mM NaCl, 1 mM EDTA, 1 mM DTT; liprin-α fragments at 200 μM injected into LAR-RPTP fragments at 20 μM; one-site binding model; N-terminal tags kept; both purified
[5] = target: T2, liprin-β1_SAM123 (mouse), Trx-His6-tagged (mouse) (UniProt Q8C8U0); test: SEC; analytical gel filtration, Superdex 200 Increase 10/300 GL; 50 mM Tris-HCl pH 7.5, 100 mM NaCl, 1 mM EDTA, 1 mM DTT; N-terminal tags kept; both purified
T2 sequence: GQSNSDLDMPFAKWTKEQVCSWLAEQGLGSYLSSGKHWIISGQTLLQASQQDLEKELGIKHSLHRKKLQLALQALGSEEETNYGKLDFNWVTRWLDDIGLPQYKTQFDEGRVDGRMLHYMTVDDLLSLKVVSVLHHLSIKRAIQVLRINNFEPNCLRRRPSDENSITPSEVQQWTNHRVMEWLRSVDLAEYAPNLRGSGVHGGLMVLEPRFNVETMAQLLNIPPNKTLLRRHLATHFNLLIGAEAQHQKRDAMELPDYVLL

[6] = target: LAR_D1D2 L1539C mutant (human) (UniProt P10586); test: cross-linking + SEC; site-specific disulfide cross-linking: LAR_D1D2 cysteine mutants incubated for 3 days at room temperature in 50 mM Tris-HCl pH 7.5, 100 mM NaCl, 1 mM EDTA without reducing reagent, then analytical gel filtration; oligomers reversible with DTT; both purified
[7] = target: LAR_D1D2 T1593C mutant (human) (UniProt P10586); test: as above

For “CASK_CaMK (CaMK domain of calcium/calmodulin-dependent serine protein kinase) (from UniProt O14936 1-345) (domain or fragment)”, which binding [1] is on record?
The binding was “binds”.

And the binding [2]?
The binding was “binds”.

With “liprin-α3_SAM123 (mouse), Trx-His6-tagged (from UniProt P60469 806-1126) (domain or fragment)” as the molecule, how does the binding [3] read?
The binding was “no binding”.

And the binding [4]?
The binding was “no binding (tested: 200 μM injected into 20 μM)”.

Which binding [5] does the source give for “liprin-α2_SAM123 (C-terminal SAM repeats of human liprin-α2), Trx-His6-tagged (from UniProt O75334 866-1193) (domain or fragment)” here?
The binding was “binds”.

B1: LAR_D1D2 L1539C mutant (domain or fragment, UniProt P10586 1332-1907)
chain: T1 sequence with L208C, E498F
With B1 as the molecule, how does the binding [6] read?
The binding was “no binding”.

B2: LAR_D1D2 T1593C mutant (domain or fragment, UniProt P10586 1332-1907)
chain: T1 sequence with T262C, E498F
With B2 as the molecule, how does the binding [7] read?
Its binding is “no binding”.
